# The supplement of paper PMC8728848
# The other results are listed elsewhere or left out.
# B1: Di AAL2 (Agrocybe aegerita) (protein)
# chain: MTSNVITQDLPIPVASRGFADIVGFGLDGVVIGRNAVNLQPFLAVKNFAQNAGGWLTTKHVRLIADTTGTGKGDIVGFGNAGVYVSVNNGKNTFADPPKMVIANFGYDAGGWRVEKHLRYLADIRKIGRADIIGFGEKGVLVSRNNGGLNFGPATLVLKDFGYDAGGWRLDRHLRFLADVTGNGHLDIVGFGDKHVFISRNNGDGTFAPAKSVIDNFCIDAGGWKIGDHPRFVADLTGDGTADIIGCGKAGCWVALNNGGGVFGQVKLVINDFGTDKGWQAAKHPRFIADLTGNGRGDVVGFGNAGVYVALNNGDGTFQSAKLVLKDFGVQQGWTVSKHRRFVVDLTGDGCADIIGFGEKETLVSYNDGKGNFGPVKALTNDFSFSGGKWAPETTVCWMANLDSSRHPAPAPMTSNVITQDLPIPVASRGFADIVGFGLDGVVIGRNAVNLQPFLAVKNFAQNAGGWLTTKHVRLIADTTGTGKGDIVGFGNAGVYVSVNNGKNTFADPPKMVIANFGYDAGGWRVEKHLRYLADIRKIGRADIIGFGEKGVLVSRNNGGLNFGPATLVLKDFGYDAGGWRLDRHLRFLADVTGNGHLDIVGFGDKHVFISRNNGDGTFAPAKSVIDNFCIDAGGWKIGDHPRFVADLTGDGTADIIGCGKAGCWVALNNGGGVFGQVKLVINDFGTDKGWQAAKHPRFIADLTGNGRGDVVGFGNAGVYVALNNGDGTFQSAKLVLKDFGVQQGWTVSKHRRFVVDLTGDGCADIIGFGEKETLVSYNDGKGNFGPVKALTNDFSFSGGKWAPETTVCWMANLDSSRH
# What was measured:
# Assay in all cases: glycan array binding signal (z-score within array); higher = stronger binding
# Conditions in all cases: glycan notation: IUPAC condensed, linker removed
# [1] = molecular target: Gal(b1-4)GlcNAc(b1-3)Gal(b1-4)GlcNAc(b1-2)Man(a1-3)[Gal(b1-4)GlcNAc(b1-3)Gal(b1-4)GlcNAc(b1-2)Man(a1-6)]Man(b1-4)GlcNAc(b1-4)[Fuc(a1-6)]GlcNAc
# How it was run: (§1)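 The binding signal is a Z-score computed within each array and averaged over linkers. Arrays of the same protein sequence at different concentrations or buffers were also averaged together. Data originate from 3228 arrays in the Consortium for Functional Glycomics database, kept only where the protein sequence was available.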
# [2] = molecular target: Gal(b1-4)GlcNAc(b1-3)Gal(b1-4)GlcNAc(b1-2)[Gal(b1-4)GlcNAc(b1-3)Gal(b1-4)GlcNAc(b1-6)]Man(a1-6)[Gal(b1-4)GlcNAc(b1-3)Gal(b1-4)GlcNAc(b1-2)Man(a1-3)]Man(b1-4)GlcNAc(b1-4)GlcNAc
# How it was run: as §1
# [3] = molecular target: Gal(b1-4)GlcNAc(b1-3)Gal(b1-4)GlcNAc(b1-2)[Gal(b1-4)GlcNAc(b1-3)Gal(b1-4)GlcNAc(b1-6)]Man(a1-6)[Gal(b1-4)GlcNAc(b1-3)Gal(b1-4)GlcNAc(b1-2)Man(a1-3)]Man(b1-4)GlcNAc(b1-4)[Fuc(a1-6)]GlcNAc
# How it was run: as §1
# [4] = molecular target: Gal(b1-4)GlcNAc(b1-3)Gal(b1-4)GlcNAc(b1-3)Gal(b1-4)GlcNAc
# How it was run: as §1
# [5] = molecular target: Gal(b1-4)GlcNAc(b1-3)Gal(b1-4)GlcNAc(b1-3)Gal(b1-4)GlcNAc(b1-2)Man(a1-3)[Gal(b1-4)GlcNAc(b1-3)Gal(b1-4)GlcNAc(b1-3)Gal(b1-4)GlcNAc(b1-2)Man(a1-6)]Man(b1-4)GlcNAc(b1-4)GlcNAc
# How it was run: as §1
# [6] = molecular target: Gal(b1-4)GlcNAc(b1-3)Gal(b1-4)GlcNAc(b1-3)Gal(b1-4)GlcNAc(b1-2)Man(a1-3)[Gal(b1-4)GlcNAc(b1-3)Gal(b1-4)GlcNAc(b1-3)Gal(b1-4)GlcNAc(b1-2)Man(a1-6)]Man(b1-4)GlcNAc(b1-4)[Fuc(a1-6)]GlcNAc
# How it was run: as §1
# [7] = molecular target: Gal(b1-4)GlcNAc(b1-3)Gal(b1-4)GlcNAc(b1-3)Gal(b1-4)GlcNAc(b1-2)[Gal(b1-4)GlcNAc(b1-3)Gal(b1-4)GlcNAc(b1-3)Gal(b1-4)GlcNAc(b1-6)]Man(a1-6)[Gal(b1-4)GlcNAc(b1-3)Gal(b1-4)GlcNAc(b1-3)Gal(b1-4)GlcNAc(b1-2)Man(a1-3)]Man(b1-4)GlcNAc(b1-4)[Fuc(a1-6)]GlcNAc
# How it was run: as §1
# [8] = molecular target: Gal(b1-4)GlcNAc(b1-3)Gal(b1-4)GlcNAc(b1-3)Gal(b1-4)GlcNAc(b1-3)Gal(b1-4)GlcNAc(b1-2)Man(a1-3)[Gal(b1-4)GlcNAc(b1-3)Gal(b1-4)GlcNAc(b1-3)Gal(b1-4)GlcNAc(b1-3)Gal(b1-4)GlcNAc(b1-2)Man(a1-6)]Man(b1-4)GlcNAc(b1-4)GlcNAc
# How it was run: as §1
# [9] = molecular target: Gal(b1-4)GlcNAc(b1-3)Gal(b1-4)GlcNAc(b1-3)Gal(b1-4)GlcNAc(b1-3)Gal(b1-4)GlcNAc(b1-2)Man(a1-3)[Gal(b1-4)GlcNAc(b1-3)Gal(b1-4)GlcNAc(b1-3)Gal(b1-4)GlcNAc(b1-3)Gal(b1-4)GlcNAc(b1-2)Man(a1-6)]Man(b1-4)GlcNAc(b1-4)[Fuc(a1-6)]GlcNAc
# How it was run: as §1
# [10] = molecular target: Gal(b1-4)GlcNAc(b1-3)Gal(b1-4)GlcNAc(b1-3)Gal(b1-4)GlcNAc(b1-3)Gal(b1-4)GlcNAc(b1-2)[Gal(b1-4)GlcNAc(b1-3)Gal(b1-4)GlcNAc(b1-3)Gal(b1-4)GlcNAc(b1-3)Gal(b1-4)GlcNAc(b1-6)]Man(a1-6)[Gal(b1-4)GlcNAc(b1-3)Gal(b1-4)GlcNAc(b1-3)Gal(b1-4)GlcNAc(b1-3)Gal(b1-4)GlcNAc(b1-2)Man(a1-3)]Man(b1-4)GlcNAc(b1-4)[Fuc(a1-6)]GlcNAc
# How it was run: as §1
# [11] = molecular target: Gal(b1-4)GlcNAc(b1-3)Gal(b1-4)GlcNAc(b1-3)Gal(b1-4)GlcNAc(b1-3)Gal(b1-4)GlcNAc(b1-3)Gal(b1-4)GlcNAc(b1-2)Man(a1-3)[Gal(b1-4)GlcNAc(b1-3)Gal(b1-4)GlcNAc(b1-3)Gal(b1-4)GlcNAc(b1-3)Gal(b1-4)GlcNAc(b1-3)Gal(b1-4)GlcNAc(b1-2)Man(a1-6)]Man(b1-4)GlcNAc(b1-4)GlcNAc
# How it was run: as §1
# [12] = molecular target: Gal(b1-4)GlcNAc(b1-3)Gal(b1-4)GlcNAc(b1-3)Gal(b1-4)GlcNAc(b1-3)Gal(b1-4)GlcNAc(b1-3)Gal(b1-4)GlcNAc(b1-2)Man(a1-3)[Gal(b1-4)GlcNAc(b1-3)Gal(b1-4)GlcNAc(b1-3)Gal(b1-4)GlcNAc(b1-3)Gal(b1-4)GlcNAc(b1-3)Gal(b1-4)GlcNAc(b1-2)Man(a1-6)]Man(b1-4)GlcNAc(b1-4)[Fuc(a1-6)]GlcNAc
# How it was run: as §1
# [13] = molecular target: Gal(b1-4)GlcNAc(b1-3)Gal(b1-4)GlcNAc(b1-3)Gal(b1-4)GlcNAc(b1-3)Gal(b1-4)GlcNAc(b1-3)Gal(b1-4)GlcNAc(b1-2)[Gal(b1-4)GlcNAc(b1-3)Gal(b1-4)GlcNAc(b1-3)Gal(b1-4)GlcNAc(b1-3)Gal(b1-4)GlcNAc(b1-3)Gal(b1-4)GlcNAc(b1-6)]Man(a1-6)[Gal(b1-4)GlcNAc(b1-3)Gal(b1-4)GlcNAc(b1-3)Gal(b1-4)GlcNAc(b1-3)Gal(b1-4)GlcNAc(b1-3)Gal(b1-4)GlcNAc(b1-2)Man(a1-3)]Man(b1-4)GlcNAc(b1-4)[Fuc(a1-6)]GlcNAc
# How it was run: as §1
# [14] = molecular target: Gal(b1-4)GlcNAc(b1-3)Gal(b1-4)GlcNAc(b1-3)Gal(b1-4)GlcNAc(b1-3)Gal(b1-4)GlcNAc(b1-3)Gal(b1-4)GlcNAc(b1-3)Gal(b1-4)GlcNAc(b1-2)Man(a1-3)[Gal(b1-4)GlcNAc(b1-3)Gal(b1-4)GlcNAc(b1-3)Gal(b1-4)GlcNAc(b1-3)Gal(b1-4)GlcNAc(b1-3)Gal(b1-4)GlcNAc(b1-3)Gal(b1-4)GlcNAc(b1-2)Man(a1-6)]Man(b1-4)GlcNAc(b1-4)GlcNAc
# How it was run: as §1
# [15] = molecular target: Gal(b1-4)GlcNAc(b1-3)Gal(b1-4)GlcNAc(b1-3)GalNAc
# How it was run: as §1
# [16] = molecular target: Gal(b1-4)GlcNAc(b1-3)Gal(b1-4)GlcNAc(b1-3)[Gal(b1-4)GlcNAc(b1-3)Gal(b1-4)GlcNAc(b1-6)]GalNAc
# How it was run: as §1
# [17] = molecular target: Gal(b1-4)GlcNAc(b1-3)Gal(b1-4)GlcNAc(b1-6)[Gal(b1-3)]GalNAc
# How it was run: as §1
# [18] = molecular target: Gal(b1-4)GlcNAc(b1-3)Gal(b1-4)[Fuc(a1-3)]GlcNAc(b1-3)Gal(b1-4)[Fuc(a1-3)]GlcNAc
# How it was run: as §1
# [19] = molecular target: Gal(b1-4)GlcNAc(b1-3)GalNAc
# How it was run: as §1
# [20] = molecular target: Gal(b1-4)GlcNAc(b1-3)[Fuc(a1-3)GlcNAc(b1-6)]Gal(b1-4)Glc
# How it was run: as §1
# [21] = molecular target: Gal(b1-4)GlcNAc(b1-3)[Gal(b1-4)GlcNAc(b1-6)]Gal(b1-4)GlcNAc
# How it was run: as §1
# [22] = molecular target: Gal(b1-4)GlcNAc(b1-3)[GlcNAc(b1-6)]Gal(b1-4)GlcNAc
# How it was run: as §1
# [23] = molecular target: Gal(b1-4)GlcNAc(b1-6)Gal(b1-4)GlcNAc
# How it was run: as §1
# [24] = molecular target: Gal(b1-4)GlcNAc(b1-6)GalNAc
# How it was run: as §1
# [25] = molecular target: Gal(b1-4)GlcNAc(b1-6)[Gal(b1-3)]GalNAc
# How it was run: as §1
# [26] = molecular target: Gal(b1-4)GlcNAc(b1-6)[Gal(b1-4)GlcNAc(b1-3)]GalNAc
# How it was run: as §1
# Gal(b1-4)GlcNAc6P = molecular target: Gal(b1-4)GlcNAc6P
# How it was run: as §1
# Gal(b1-6)Gal = molecular target: Gal(b1-6)Gal
# How it was run: as §1
# Gal3S(b1-3)GalNAc = molecular target: Gal3S(b1-3)GalNAc
# How it was run: as §1
# Gal3S(b1-3)GlcNAc = molecular target: Gal3S(b1-3)GlcNAc
# How it was run: as §1
binder,measurement,setting,value
B1,glycan array binding signal (z-score),[1],0.002
same,glycan array binding signal (z-score),[2],-0.28
same,glycan array binding signal (z-score),[3],-0.1
same,glycan array binding signal (z-score),[4],-0.303
same,glycan array binding signal (z-score),[5],0.016
same,glycan array binding signal (z-score),[6],-0.209
same,glycan array binding signal (z-score),[7],-0.178
same,glycan array binding signal (z-score),[8],-0.095
same,glycan array binding signal (z-score),[9],-0.284
same,glycan array binding signal (z-score),[10],-0.141
same,glycan array binding signal (z-score),[11],-0.242
same,glycan array binding signal (z-score),[12],-0.282
same,glycan array binding signal (z-score),[13],-0.077
same,glycan array binding signal (z-score),[14],-0.063
same,glycan array binding signal (z-score),[15],0.462
same,glycan array binding signal (z-score),[16],-0.255
same,glycan array binding signal (z-score),[17],-0.295
same,glycan array binding signal (z-score),[18],-0.256
same,glycan array binding signal (z-score),[19],-0.328
same,glycan array binding signal (z-score),[20],-0.319
same,glycan array binding signal (z-score),[21],-0.325
same,glycan array binding signal (z-score),[22],-0.273
same,glycan array binding signal (z-score),[23],-0.332
same,glycan array binding signal (z-score),[24],-0.311
same,glycan array binding signal (z-score),[25],-0.307
same,glycan array binding signal (z-score),[26],-0.313
same,glycan array binding signal (z-score),Gal(b1-4)GlcNAc6P,-0.327
same,glycan array binding signal (z-score),Gal(b1-6)Gal,-0.322
same,glycan array binding signal (z-score),Gal3S(b1-3)GalNAc,-0.334
same,glycan array binding signal (z-score),Gal3S(b1-3)GlcNAc,-0.341
